This is an account of results in PubChem BioAssay AID1508624 (National Center for Advancing Translational Sciences (NCATS), 2021).

Among all 48,000 compounds or so, about 120 (0.25%) were called active. About 4% were inconclusive and are not listed. The call rests on the fitted dose curve; in most records, active means well fitted activation curve with a large enough effect; inconclusive means small, poorly fitted or top-dose-only effect, or another doubt; inactive means no such curve, though single readings can be large or run the other way. The list shows a part of the results.

The nature of the experiment: Primary qHTS for Identification of Small Molecule Activators of Huntingtin-Antisense Promoter Activity. Further: nearly all actives have a fitted effect of over 55% in size. The note with it: HEK293 HTT-AS promoter firefly luciferase reporter, 24 h; series mostly up to 57.5 µM; activity change, positive = activation: at the top concentration. Summed up: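 HEK293 Fluc reporter, 2,500 cells/well, 24 h pre-culture; cpds up to 57.5 uM final, 24 h 37 degrees C; Dual-Glo, 10 min RT; normalized vehicle = 0%, zero RLU = -100%.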
Background: Quantitative high-throughput screening tests each substance at several concentrations.
Consider `Cc1cccc(C(=O)NCC(c2ccc3c(c2)OCO3)N2CCOCC2)c1` (stereo not given), for which the “activity change, positive = activation” value was inactive: -11.1%. Next, `O=C(c1ccco1)c1cn(CCOc2ccc(Cl)cc2)c2ccccc12`: inactive: -9.28%; `O=C(c1cccs1)N1CCCc2cc(NS(=O)(=O)c3ccc(Cl)cc3)ccc21`: inactive: -30.7%. The result for `Cc1noc(NS(=O)(=O)c2ccc(N)cc2)c1C` reads “inactive”; that for `COc1ccc(C(CNC(=O)c2ccc(C)cc2)N2CCOCC2)cc1` (stereo not given), inactive: -7.37%. Take `CCC(=O)N1CCc2cc(CNC(=O)Nc3ccc(OC)cc3OC)ccc21`: the “activity change, positive = activation” value was inactive: -0.752%. The result for `O=C(NCCc1ccccc1)C(=O)NCC(c1cccnc1)N1CCN(c2ccc(F)cc2)CC1` (stereo not given) reads inactive: -48.6%; that for `O=C(CSc1nccn1Cc1ccccc1)NC1CCCC1`, inactive: -1.9%; that for `O=C(CCCc1nc(-c2ccco2)no1)Nc1ccccc1[N+](=O)[O-]`, inactive: -11%. The result for `COc1cccc(-n2c(=O)c3c4c(sc3n(Cc3ccc(F)cc3Cl)c2=O)CCCC4)c1` reads inactive: 5.45%; that for `COc1ccc(C2=NN(C(C)=O)C(c3cn(-c4ccccc4)nc3-c3cccs3)C2)cc1` (stereo not given), inactive: -32.4%; that for `COc1ccc(-c2[nH]ncc2C(=O)NCc2cccc(F)c2)cc1`, inactive: -8.68%. Regarding `CCC1CCCCN1S(=O)(=O)c1ccc(N2CCCCS2(=O)=O)cc1` (stereo not given), the “activity change, positive = activation” value was inactive: -2.4%. The result for `CCOC(=O)c1ccc(NC(=O)c2c(C)oc3nc(C)nc(N4CCCC4)c23)cc1` reads inactive: 2.11%. Next, `C[C@@H]1CN(CC(=O)Nc2ccc3c(c2)Cc2cccc(-c4cc(=O)cc(N5CCOCC5)o4)c2S3)C[C@H](C)O1`: inactive: -36.9%; `Cc1ccc(-n2nc(-c3ccc(F)cc3)c3cnc4cc5c(cc4c32)OCO5)cc1C`: inactive: -12.6%; `CCc1ccc(NC(=O)CC(c2ccc(C)cc2)N2Cc3ccccc3C2=O)cc1` (stereo not given): inactive: -16.9%.

`Cc1ccc(Cl)cc1N1CCN(C(=O)CCSCc2ccccc2F)CC1`: the “activity change, positive = activation” value is inactive: -10.3%.

On to `CCc1ccc(-c2cc(C)no2)cc1S(=O)(=O)N1CCN(c2cccc(Cl)c2)CC1`, for which the “activity change, positive = activation” value was inactive: -45.7%.

Turning to `Cc1c(C(=O)Nc2ccc(Br)cc2F)oc2ccc(S(=O)(=O)N3CCC4(CC3)OCCO4)cc12`, the “activity change, positive = activation” value was inactive: -20.1%.

On to `COc1ccc(NC(=O)c2oc3ccc(S(=O)(=O)N(C)C4CCCCC4)cc3c2C)cc1Cl`, for which the “activity change, positive = activation” value is inactive: -29.3%.

Regarding `Cc1ccc(CN(C(=O)c2ccccc2Br)C2CCS(=O)(=O)C2)o1` (stereo not given), the “activity change, positive = activation” value is inactive: -9.54%. `O=C(NCc1ccc(Cl)cc1)C(=O)Nc1cccc(Br)c1`: the “activity change, positive = activation” value is inactive: -19.1%. As to `CC1CCC(NC(=O)c2ccc3c(c2)N(Cc2cccc(Cl)c2)C(=O)c2ccccc2S3=O)CC1` (stereo not given), the “activity change, positive = activation” value is inactive: 26.7%. Next, `Cn1c(=O)c2c(SCC(=O)NCc3ccco3)nc(-c3ccccc3F)nc2n(C)c1=O`: inactive: -6.2%; `Cc1ccc(NC(=O)Nc2cc3c(cc2N2CCCCC2)n(C)c(=O)n3C)cc1Cl`: inactive: -43.6%; `CCOc1ccccc1NC(=O)COc1cccc2c(=O)n(CCOC)ccc12`: inactive: -23.5%.

As for `COc1ccc(-c2[nH]ncc2C(=O)NCc2cccc(OC)c2)cc1`, the “activity change, positive = activation” value was inactive: -12.2%. Next, `COc1cccc(CNCc2cccn2-c2nnc(N3CCN(c4ccccc4)CC3)s2)c1`: inactive: -18.9%; `CCOc1cccc2cc(-c3cn4c(n3)sc3ccccc34)c(=O)oc12`: inactive: 10.7%.

In the case of `Cc1ccsc1CN(C(=O)COc1ccc(Cl)cc1)C1CCS(=O)(=O)C1` (stereo not given), the “activity change, positive = activation” value was inactive: -14.2%. Consider `O=C(CCn1c(=O)c2sccc2n(CC(=O)Nc2ccccc2)c1=O)NCc1ccccc1Cl`, for which the “activity change, positive = activation” value is inactive: 8.74%. Next, `CCn1c(=O)cc(SCC(=O)NCc2ccc(Cl)cc2)c2ccccc21`: inactive: -9.16%; `CCOC(=O)[C@H](CCc1ccccc1)N[C@@H](C)C(=O)N1CCC[C@H]1C(=O)O`: inactive: 0.478%. Next, `Cc1ccc(CNC(=O)CSc2nnc(C)c3c(C)n(-c4ccccc4)nc23)cc1`: inactive: -45.4%. On to `CC1CCN(S(=O)(=O)c2ccc3c(ccc(=O)n3CC(=O)NCc3ccccc3Cl)c2)CC1`, for which the “activity change, positive = activation” value is inactive: -12.6%. Take `Cc1cc(OCC(=O)NC(Cc2c[nH]c3ccccc23)C(=O)O)ccc1Cl` (stereo not given): the “activity change, positive = activation” value is inactive: -0.648%. Consider `Cc1oc2ncn(C)c(=O)c2c1C(=O)Nc1ccc(F)cc1`, for which the “activity change, positive = activation” value was inactive: 6.2%. Next, `CCOC(=O)c1[nH]c(C)c(CCC(=O)Nc2ccccc2C(=O)OC)c1C`: inactive: -28.5%; `Cc1cc(N2CCN(c3ccc(F)cc3)CC2)n2nc(-c3ccc(Cl)cc3)nc2n1`: inactive: -3.9%. On to `CCc1nn(CC(=O)NCCc2ccc(Cl)cc2)c(=O)c2cc3ccccc3n12`, for which the “activity change, positive = activation” value is inactive: -5.24%. Turning to `Cc1ccc(-c2nnc(Nc3ccccc3)c3ccccc23)cc1S(=O)(=O)N1CCOCC1`, the activity change, positive = activation is inactive: 11.4% [at 11.5 µM, percent change from vehicle, -100% = no light]. Next, `CCOc1ccc2nc(N(Cc3cccnc3)C(=O)C3CCCCC3)sc2c1`: inactive: -10.9%; `Cc1ccc(CNC(=O)c2ccc3c(c2)N(Cc2ccccc2Cl)C(=O)CS3)cc1`: inactive: -26.7%; `Cc1cccc(N2CCN(C(=O)c3oc(=O)c4ccccc4c3-c3ccccc3)CC2C)c1` (stereo not given): inactive: -13.1%. The result for `COc1ccc(Cn2c(CCC(=O)Nc3ccc(C)cc3C)nc3cccnc32)cc1` reads inactive: -14.3%; that for `O=C1CC2(CCCC2)CC(=O)N1CCNCC1COc2ccccc2O1` (stereo not given), inactive: 0.926%. In the case of `COc1cccc(CNC(=O)c2cccc(-n3c(C)nc4cccnc43)c2C)c1`, the “activity change, positive = activation” value is inactive: -12.9%. The result for `Cc1cccc(CSc2nc(=O)c3c(n2C)NC(=O)CC3c2cc(F)cc(F)c2)c1` (stereo not given) reads inactive: -14%; that for `CC(C)OCCCNC(=O)c1ccc(Cn2c(=O)c3cccn3c3cccnc32)cc1`, inactive: -17.1%; that for `Cc1cccc(NC(=O)c2oc3ccccc3c2NC(=O)c2cc(=O)c3ccc(C)cc3o2)c1`, inactive: -7.42%. Next, `Cc1cc(NC(=O)CCc2nc3cccnc3n2Cc2cccs2)ccc1Br`: inactive: -24.3%; `COc1ccnc2[nH]cc(C(=O)C(=O)N3CCN(C(=O)c4ccccc4)C[C@@H]3C)c12`: inactive: -17.6%; `Cc1ccc(-n2c(=O)c3c(cnn3C)n(Cc3ccc(Cl)cc3)c2=O)cc1`: inactive: -25.6%. As for `CCOc1ccc(CNC(=O)c2ccc3[nH]c(C)c(C)c3c2)cc1OC`, the “activity change, positive = activation” value is inactive: -15.1%. The result for `CCOc1cc(C(=O)Nc2ccc(NC(=O)c3cc4ccccc4o3)c(OC)c2)cc(OCC)c1OCC` reads inactive: -22.7%. In the case of `Cc1nc2ccc(CN(C)c3ccc(C(=O)N[C@@H](CCC(=O)O)C(=O)O)s3)cc2c(=O)[nH]1`, the “activity change, positive = activation” value was inactive: -7.53%. The result for `CCOc1ccc2nc(N3CCCC(C(=O)Nc4cc(C)ccc4C)C3)sc2c1` (stereo not given) reads inactive: 7.42%; that for `Cc1ccc(NC(=O)Nc2c[nH]c(=O)[nH]c2=O)c(Cl)c1`, inactive: -4.8%; that for `CCc1ccccc1NC(=O)CSc1nnc(-c2ccc(OC)cc2)s1`, inactive: -31.8%. In the case of `CC(=O)Nc1ccc(NC(=O)C2CCN(S(=O)(=O)c3ccc4c(c3)CCCC(=O)N4)CC2)cc1`, the “activity change, positive = activation” value was inactive: 0.448%. Next, `Cc1ccc(NS(=O)(=O)c2cc(-c3cc(C)no3)ccc2C)c(Cl)c1`: inactive: -30.6%; `COc1ccc(NC(=O)CSC2=Nc3ccccc3N=C(c3ccc(F)cc3)C2)cc1OC`: inactive: -24.7%. Next, `CCN(C(=O)CCNC(=O)Cn1cnc2ccccc2c1=O)c1cc(OC)ccc1OC`: inactive: -3.27%; `Cc1ccc2c(c1)c1c(c(=O)n(-c3ccccc3C)c(=O)n1CC(=O)c1ccc(Cl)cc1)n2C`: inactive: -8.59%; `O=S(=O)(c1ccc(Cl)cc1)c1nnn2c1nc(NC1CCCCC1)c1sccc12`: inactive: -24.2%. The result for `CCC1CN(C(=O)N2CCC(C(=O)NCc3cc(OC)c(OC)c(OC)c3)CC2)c2ccccc2O1` (stereo not given) reads inactive: -14.9%; that for `CN(C)c1ccc(NC(=O)Cn2nnc3sc4c(c3c2=O)CCC(C(C)(C)C)C4)cc1` (stereo not given), inactive: -3.34%.

For `CN(C)c1cccc(C(=O)Nc2nc3ccc(S(=O)(=O)N4CCCC4)cc3s2)c1`, the “activity change, positive = activation” value is inactive: -14.3%. Next, `O=C(Nc1ccc(O)c(-c2nc3ccccc3o2)c1)c1ccc(Br)cc1`: inactive: -12.9%; `CCSc1ncc(Cl)c(C(=O)Nc2nc3ccc(Cl)cc3s2)n1`: inactive: -7.29%. Next, `CN(C)c1ccc(CNC(=O)CN2C(=O)CSc3ccc(S(=O)(=O)N4CCCC4)cc32)cc1`: inactive: -14.9%; `Cn1c(SCC(=O)Nc2nc3ccccc3s2)ncc(C(=O)Nc2ccccc2)c1=O`: inactive: 16.8%.

Regarding `CCc1nc(-c2cc(S(=O)(=O)N3CCN(c4ccccc4)CC3)ccc2OC)no1`, the “activity change, positive = activation” value is inactive: -10.4%. Next, `COc1cccc(CNC(=O)CN2C(=O)N(c3ccc(C)cc3C)S(=O)(=O)c3ccccc32)c1OC`: inactive: -34.3%. The result for `CCc1nn(CC(=O)NCCCN(CC)CC)c(=O)c2cc3occc3n12` reads inactive: -1.66%; that for `Cc1ccc2onc(CNC(=O)NCc3ccc(Cl)cc3)c2c1`, inactive: -16.5%; that for `COc1ccc(C)cc1-n1cnc2cc(C(=O)NC3CCCCCC3)ccc21`, inactive: -22.7%. Next, `O=C1COc2cc(S(=O)(=O)CCC(=O)NC3CCCCC3)c(Cl)cc2N1`: inactive: -18%. In the case of `O=C(CSc1nccn1-c1cccc(Cl)c1)Nc1cccc2ccccc12`, the “activity change, positive = activation” value was inactive: -6.42%. The result for `CCOc1ccc(CCNC(=O)CCCc2nnc3n(CC)c(=O)c4sccc4n23)cc1` reads inactive: -12%; that for `CCSc1ncc(Cl)c(C(=O)Nc2c(C(=O)Nc3ccccc3)oc3ccccc23)n1`, inactive: -0.706%; that for `COc1cccc(C(=O)Nc2cccc(-c3nc4ncccn4c3C)c2)c1`, inactive: 5.58%.

Turning to `O=C(O)c1c(-c2ccccc2)oc2ccc(OCc3c(F)cccc3Cl)cc12`, the “activity change, positive = activation” value was inactive: -33.1%.

As for `CNC(=O)[C@H](Cc1ccccc1)NC(=O)[C@H](CC(C)C)[C@H](CSc1cccs1)C(=O)NO`, the “activity change, positive = activation” value is inactive: -4.86%. Next, `Cn1c(=O)c2c(-c3ccc(Br)cc3)n(Cc3ccc(F)cc3)cc2n(C)c1=O`: inactive: -29.7%; `COc1ccc(-c2nc3cc(C)ccn3c2NC(=O)c2cccc(F)c2)cc1`: inactive: 5.04%; `Cc1cc2c(cc3c(SCc4ccc(Cl)cc4)nncn32)o1`: inactive: -4.79%.

For `COc1ccc(C)cc1NC(=O)c1cnc2ccc(C)cn2c1=O`, the “activity change, positive = activation” value was inactive: 8.66%. As to `O=c1c2ccccc2n(Cc2c(F)cccc2Cl)c(=O)n1CCc1ccccc1`, the “activity change, positive = activation” value is inactive: -7.51%. In the case of `COCCNC(=O)CCCn1c(SCC(=O)c2ccc(Br)cc2)nc2c(sc3ccccc32)c1=O`, the “activity change, positive = activation” value was inactive: -3.17%. The result for `Cc1ccn2c(=O)cc(COc3ccc(NC(=O)COc4ccc(C)c(C)c4)cc3)nc2c1` reads inactive: -5%; that for `Cc1ccc(OCC(=O)NCC(c2ccc(Cl)cc2)N2CCOCC2)cc1C` (stereo not given), inactive: -18.6%. The result for `CCOc1cc(C2c3c(oc4ccccc4c3=O)C(=O)N2Cc2ccc(OC)cc2)ccc1O` (stereo not given) reads inactive: -4%.

Consider `O=C(CCCCn1c(=O)c2ccccc2n(Cc2cccc(F)c2)c1=O)NCc1ccc2c(c1)OCO2`, for which the “activity change, positive = activation” value was inactive: -35.6%.
